Measurements as given in PubChem BioAssay AID651820 (National Center for Advancing Translational Sciences (NCATS), 2012).
Screen size: about 340,000 compounds; about 12,000 (3.5%) were called active. Inconclusive results, whose numbers are uncertain, are shown with a selection of clear calls. Calls follow the shape of the dose curve; as a rule, active = well fitted inhibition curve with a large enough effect; inconclusive = small, poorly fitted or top-dose-only effect, or another doubt; inactive = no such curve, though single readings can be large or run the other way. No potency is given beside an inconclusive call; the fits are too rough.
% is scaled to controls: 0 for no effect and ±100 for the full control effect; potency is read from the fitted curve at half-maximal effect; tags tell the direction and shape of the fitted curve.

Test: qHTS Assay for Inhibitors of Hepatitis C Virus (HCV)
Details: Huh7.5.1 HCVcc-Cre (HCVcc is cell-culture hepatitis C virus) infection, luciferase reporter, 44 h; activity change, negative = inhibition: at 41.8 µM (top of the series) unless noted
Method in brief: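 Cells seeded at 1,000/well and cultured 4 h, then compounds added followed by HCVcc-Cre virus (~0.5 moi). After 44 h further culture, luciferase substrate was added, plates held 15 min at room temperature, and luminescence read for 15 sec.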
With `CN(Cc1ccccc1)CC(O)COc1ccc(CNCc2nccn2C)cc1` (stereo not drawn) the Potency was inconclusive [inhibitor, single point]. In the case of `Cc1nnn(C23C[C@@H]4C[C@@H](CC(C(=O)N5CCN(c6ccccc6)CC5)(C4)C2)C3)n1`, the Potency is reported as inconclusive [inhibitor, single point]. In the case of `N#CC12CCCCC1CC1CCCCC1(C#N)N2N` (stereo not drawn), the “activity change, negative = inhibition” value is reported as inactive: -2.05%. With `C=CCOc1ccc(C2NC(=S)NC3=C2CCc2ccccc23)cc1` (stereo not drawn) the “activity change, negative = inhibition” value was inactive: -13.3%. In the case of `COc1cccc(N2CCN(C(=O)CN3C(=O)NC4(CCCC4)C3=O)CC2)c1`, the Potency is reported as inconclusive [inhibitor, partial curve]. With `COc1cccc(CN(C)C(=O)C(Cc2ccccc2)NC(=O)c2ccccc2)c1OC` (stereo not drawn) the Potency was inconclusive [inhibitor, single point]. In the case of `Cc1ccc(C(=O)N2CCN(c3ccc(NC(=O)c4ccc(Br)o4)cc3)CC2)cc1`, the Potency is reported as active: 10 µM. For `CC(C)n1nc(C(=O)Nc2cccc(S(=O)(=O)N3CCOCC3)c2)c2ccccc2c1=O`, the Potency was inconclusive [inhibitor, partial curve]. In the case of `O=C(Nc1ncc(Cc2ccc(C(F)(F)F)cc2)s1)c1ccc(-c2cccc([N+](=O)[O-])c2)o1`, the Potency is reported as active: 2.51 µM. For `Cn1c(CN2CCCCC2)nc2cc(NC(=O)c3ccccc3Cl)ccc21`, the Potency was inconclusive [inhibitor, single point]. With `Cc1ccc(C(CC(=O)NCc2ccco2)c2ccc(OC(C)C)cc2)cc1` (stereo not drawn) the “activity change, negative = inhibition” value was inactive: -8.09%. For `O=C(Nc1ccccc1)Nc1ccc(F)c([N+](=O)[O-])c1`, the Potency was inconclusive [inhibitor, partial curve]. For `CCN1C(=O)Cc2cc(S(=O)(=O)NCCc3ccccc3)ccc21`, the Potency was inconclusive [inhibitor, full curve]. For `O=C(NCCn1ccc2ccccc21)c1ccc2c(c1)OCO2`, the Potency was inconclusive [inhibitor, single point]. For `CS(=O)(=O)c1ccc(C(=O)OCc2nnc(-c3ccc(Cl)cc3)o2)cc1[N+](=O)[O-]`, the Potency was inconclusive [inhibitor, single point]. In the case of `O=C(COc1ccccc1Cl)Nc1nnc(S(=O)(=O)N2CCCCCC2)s1`, the “activity change, negative = inhibition” value is reported as inactive: 17.2%. With `Cn1c(=O)cc(SCC(=O)N2CCCC2)c2ccc(Cl)cc21` the Potency was inconclusive [inhibitor, single point]. In the case of `N#Cc1ccc(S(=O)(=O)N2CCN(CC(=O)Nc3ccccc3C(=O)NC3CC3)CC2)cc1`, the Potency is reported as inconclusive [inhibitor, single point]. In the case of `Nc1cc2c(cc1Cl)-c1ccccc1C2=NO`, the Potency is reported as active: 5.01 µM. In the case of `CCOC(=O)c1c(NC(=O)CSc2nnc(-c3c[nH]c4ccccc34)n2CC)sc2c1CCCC2`, the Potency is reported as inconclusive [inhibitor, partial curve]. With `Cc1c(C(C)C)c(=O)n(-c2ccc(S(=O)(=O)N3CCOCC3)cc2)n1C` the “activity change, negative = inhibition” value was inactive: -9.89%. In the case of `CCCC(C)NC(=O)c1nc(-c2ccccc2)n(-c2ccccc2)n1` (stereo not drawn), the Potency is reported as inconclusive [inhibitor, partial curve]. For `O=C1Nc2ccc(Cl)cc2C(C#CC2CC2)(C(F)(F)F)O1` (stereo not drawn), the Potency was inconclusive [inhibitor, single point]. In the case of `CCOc1ccccc1NC(=O)NNS(=O)(=O)c1cc(C)ccc1C`, the Potency is reported as inconclusive [inhibitor, full curve]. With `CC(=O)c1cccc(NC(=O)c2ccc(N(C)S(C)(=O)=O)cc2)c1` the Potency was inconclusive [inhibitor, single point]. With `Cc1ccc(N(C(=O)c2snc(C(N)=O)c2N)C(C(=O)NCC2CCCO2)c2ccc(C)o2)c(C)c1` (stereo not drawn) the Potency was inconclusive [inhibitor, single point]. In the case of `CC1CCCC(NC(=O)c2cccc(S(=O)(=O)NCc3ccccc3)c2)C1C` (stereo not drawn), the Potency is reported as inconclusive [inhibitor, single point]. In the case of `COc1ccc(CCNC(=O)CCCCCNc2nc(=S)[nH]c3ccccc23)cc1OC`, the Potency is reported as active: 11.2 µM. For `CC(C)C(=O)NC(c1ccc(Cl)cc1Cl)c1ccc2cccnc2c1O` (stereo not drawn), the Potency was active: 2.24 µM. With `Cc1c(C)n(Cc2ccccc2)c2ccc(C(=O)OCCCN(C)C)cc12` the Potency was inconclusive [inhibitor, single point]. In the case of `Cn1c(N)c(C(=O)COC(=O)C2(c3ccc(F)cc3)CCCC2)c(=O)n(C)c1=O`, the Potency is reported as inconclusive [inhibitor, single point]. In the case of `CN(C(=O)COc1nnc(-c2cccs2)c(-c2cccs2)n1)c1ccccc1`, the Potency is reported as inconclusive [inhibitor, single point]. For `O=C(N/N=C/c1ccc([N+](=O)[O-])o1)c1cn(-c2ccccc2)nc1-c1ccccc1`, the Potency was inconclusive [inhibitor, single point]. With `CC(C)NC(=O)CC(=O)N/N=C/c1c(F)cccc1Cl` the “activity change, negative = inhibition” value was inactive: 12.7%. For `Cc1cc(C)cc(Nc2nc(-c3ccc(S(=O)(=O)N4CCCC4)cc3)cs2)c1`, the Potency was active: 10 µM. With `CN1CCN(c2ccccc2NC(=O)c2ccc(-c3ccccc3[N+](=O)[O-])o2)CC1` the Potency was inconclusive [inhibitor, single point]. With `COC(=O)[C@@H]1[C@H]2C[C@H]3c4[nH]c5ccccc5c4CCN3C[C@@H]2CC[C@@H]1O` the Potency was inconclusive [inhibitor, full curve, poor fit]. With `CN(c1ccc(C(=O)Nc2cccnc2)cc1)S(=O)(=O)c1ccc(Cl)cc1` the “activity change, negative = inhibition” value was inactive: -19.6%. With `COc1ccc(OC)c(S(=O)(=O)Nc2ccc(-c3ccc4nncn4n3)cc2)c1` the Potency was inconclusive [inhibitor, single point]. For `CC1=C(C(=O)OCc2ccccc2)C(c2ccccc2[N+](=O)[O-])NC(=O)N1C` (stereo not drawn), the “activity change, negative = inhibition” value was inactive: -24.8%. For `CC1CCCC(C)N1C(=O)CSc1nnnn1-c1cccc2c1CCCC2` (stereo not drawn), the “activity change, negative = inhibition” value was inactive: 1.08%. With `O=C(CSc1ncccc1-c1nc2ccccc2[nH]1)N1CCN(c2ccccc2F)CC1` the Potency was inconclusive [inhibitor, partial curve]. For `COc1ccc(-c2oc3ccccc3c2C(=O)OCc2ccc(O)cc2)cc1`, the Potency was inconclusive [inhibitor, single point]. For `O=C(C1CC1)N1CCc2cc(S(=O)(=O)N3CCN(c4ccccc4)CC3)ccc21`, the Potency was inconclusive [inhibitor, single point]. For `COc1ccc(CN(C)C(=O)COC(=O)c2cnc(Cl)c(Cl)c2)cc1`, the Potency was inconclusive [inhibitor, single point]. With `O=C(C[n+]1cccc(NC(=O)c2ccccc2)c1)c1cccc([N+](=O)[O-])c1` the Potency was inconclusive [inhibitor, partial curve]. With `CC(NC(=S)NC(=O)c1cccs1)c1ccccc1` (stereo not drawn) the Potency was inconclusive [inhibitor, single point]. For `O=c1cc(C(F)(F)F)[nH]c(=S)n1-c1ccccc1`, the Potency was inconclusive [inhibitor, single point]. With `Cc1ccc(NCc2nnc(SCC(=O)N3c4ccccc4Sc4ccccc43)o2)c(C)c1` the Potency was inconclusive [inhibitor, single point]. In the case of `CCCNC(=S)N1CCC(Cc2ccccc2)CC1`, the Potency is reported as inconclusive [inhibitor, single point]. For `CCN(CC)C(=O)c1cnn(-c2ccccc2)c1NC(=O)c1ccco1`, the “activity change, negative = inhibition” value was inactive: 14.3%. With `COc1ccccc1Nc1nnc(SCC(=O)c2cc(C)n(CC3CCCO3)c2C)s1` (stereo not drawn) the Potency was inconclusive [inhibitor, single point]. In the case of `CCOc1ccc(CNC(=O)CCCn2nc(CC)n3c(cc4occc43)c2=O)cc1`, the Potency is reported as inconclusive [inhibitor, full curve]. In the case of `Cc1cc(C(=O)c2ccc3ccccc3c2)c(C)o1`, the “activity change, negative = inhibition” value is reported as inactive: 10.8%. With `Cc1ccc2oc(C(=O)NC3CCS(=O)(=O)C3)c(C)c2c1` (stereo not drawn) the “activity change, negative = inhibition” value was inactive: -18.2%. With `COc1ccccc1NS(=O)(=O)c1cc(NC(=O)c2[nH]c(C)c(C(C)=O)c2C)ccc1N1CCOCC1` the Potency was inconclusive [inhibitor, single point]. In the case of `Cc1ccccc1C(=O)N1CCC(C(=O)NN2C(=O)NC3(CCC(C)CC3)C2=O)CC1` (stereo not drawn), the “activity change, negative = inhibition” value is reported as inactive: 12.8%. In the case of `COc1ccc(Nc2nc(NN)nc(Nc3ccc(OC)cc3)n2)cc1`, the Potency is reported as inconclusive [inhibitor, single point]. With `CCN(C(=O)CCc1nc(-c2ccc(OC)cc2)no1)c1cc(OC)ccc1OC` the Potency was active: 11.2 µM. For `CCCCN(C)C(=O)c1nc2ccccn2c1CNCCCn1ncc2ccccc21`, the Potency was inconclusive [inhibitor, single point]. For `CCCCNC(=O)O[C@@H]1C[C@@H]2CCN3C(=O)CCC[C@H]([C@H]1CC)[C@H]23`, the Potency was inconclusive [inhibitor, single point]. For `COc1ccc(C(=O)Nc2nnc(Cc3ccc(OC)c(OC)c3)s2)c(OC)c1`, the Potency was active: 11.2 µM. In the case of `O=C(CCSc1nc(-c2ccc3c(c2)OCO3)cc(C(F)(F)F)n1)NCc1ccco1`, the Potency is reported as inconclusive [inhibitor, partial curve]. For `COc1ccc(CN2CCSCC2)c(C)c1C`, the “activity change, negative = inhibition” value was inactive: 21.3%. With `CC(=O)N1CCN(S(=O)(=O)c2cccc(C(=O)NNC(=O)c3ccc(Br)cc3)c2)CC1` the “activity change, negative = inhibition” value was inactive: 3.65%. With `CC(C)CCN(C)c1ccc(/C=N/n2cnnc2)cc1` the “activity change, negative = inhibition” value was inactive: -2.72%. In the case of `Clc1ccc2nc(CSc3nnc(-c4c[nH]c5ccccc45)o3)cn2c1`, the “activity change, negative = inhibition” value is reported as inactive: 4.77%. In the case of `COCCNc1c(-c2ccc(OC)cc2)nc2ccc(Cl)cn12`, the Potency is reported as inconclusive [inhibitor, single point].
